Test results as given in article PMC7819943, “Rice protein-binding microarrays: a tool to detect cis-acting elements near promoter regions in rice”.
The other results are listed elsewhere or left out.

Each sequence was assayed against T1, OsWOX13 (Oryza sativa, UniProt Q5QMM3 1-267) (assay: protein-binding microarray (RPBM); PBS, 2% BSA, 51.3 ng/ul salmon testes DNA, 50 uM zinc acetate, 200 nM TF, 25 C, 1 h; high values mean tight binding). Conditions: protein: recombinant; tags: N-terminal polyhistidine and DsRed monomer fusion (pET32a); label: CyDye5-dUTP incorporated in the synthesized complementary strand; 3' TTTTT single-stranded linker to array surface; dsDNA, one strand shown.
T1 sequence: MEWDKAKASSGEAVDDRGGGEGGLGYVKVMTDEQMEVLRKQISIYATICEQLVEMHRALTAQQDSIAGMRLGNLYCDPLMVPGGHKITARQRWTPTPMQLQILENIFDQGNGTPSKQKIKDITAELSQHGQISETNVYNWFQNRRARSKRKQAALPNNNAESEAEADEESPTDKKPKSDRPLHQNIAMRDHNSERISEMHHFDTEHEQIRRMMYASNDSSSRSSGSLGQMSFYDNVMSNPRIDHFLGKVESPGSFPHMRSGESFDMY
Method in brief: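 The binding signal is fluorescence intensity per array feature (arbitrary units). Readings came from an Axon 4000B scanner after a washed, 2% BSA-blocked, double-stranded custom Agilent array had been incubated for 1 h at 25 °C with 200 nM protein and 50 µM zinc acetate. The protein was a Ni–NTA-purified transcription factor fused N-terminally to polyhistidine and DsRed, expressed in E. coli BL21-CodonPlus.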

“ATGCTCAAATCAGTGTCTTAATTATAGGCTGGCTGATTGGCGGAGTCACCTAGTGCAG” was tested. Which binding signal did it give?
The binding signal was 15000 fluorescence intensity (a.u.).

“CTTCTAGTGAGTTGATTGAAGGGATCTAATCCTGGGTCCGCGGAGTCACCTAGTGCAG” was tested. Which binding signal did it give?
The binding signal was 23700 fluorescence intensity (a.u.).

Which binding signal does the source give for “TCCAAATCTAGATTGATGGATGGTCTACTTCGCCAAGTATCGGAGTCACCTAGTGCAG” here?
Its binding signal is 49200 fluorescence intensity (a.u.).

With “CAAATGATTAAACATTGGACATAGAAACCCACAACTATACCGGAGTCACCTAGTGCAG” as the sequence, how does the binding signal read?
Its binding signal is 20500 fluorescence intensity (a.u.).

“GAGAGTATCTAATTAATCATATGCTAATGAGTTTTCTTGTCGGAGTCACCTAGTGCAG” was tested. Which binding signal did it give?
Its binding signal is 3630 fluorescence intensity (a.u.).

“TGAGTATGATGAGATTAATTTCTTGCCTGTTTCTGCTGGACGGAGTCACCTAGTGCAG” was tested. Which binding signal did it give?
Its binding signal is 5980 fluorescence intensity (a.u.).

“CTGAAACTAGAATTGATGCCAAATGAGTTGAGGTTGGAATCGGAGTCACCTAGTGCAG” was tested. Which binding signal did it give?
Its binding signal is 4490 fluorescence intensity (a.u.).

Which binding signal does the source give for “AACAAACAATCAAATATTTAGGCCATGTTTAGTTCACGCCCGGAGTCACCTAGTGCAG” here?
Its binding signal is 5130 fluorescence intensity (a.u.).

For “CTTTAATAAGTTAATAGATAGATGGAAACGAATCAAATCACGGAGTCACCTAGTGCAG”, which binding signal is on record?
Its binding signal is 16200 fluorescence intensity (a.u.).

“AGGTAGATTGAGTTTAAGTTATTGAATCTGGTTAGGGTGACGGAGTCACCTAGTGCAG” was tested. Which binding signal did it give?
Its binding signal is 7120 fluorescence intensity (a.u.).

How did the binding signal turn out when “TTATCCTAATTAACCTTGCTGGAGCTTTATCGTATACTAGCGGAGTCACCTAGTGCAG” was run?
The binding signal was 5300 fluorescence intensity (a.u.).

“GTTCAGATGATTGAGATCTACAATGAGCAAATCCGTGATCCGGAGTCACCTAGTGCAG” was tested. Which binding signal did it give?
Its binding signal is 38600 fluorescence intensity (a.u.).

Which binding signal does the source give for “ACATAACTACTGATTGTTAGAATCTGGTCGAAATGGCATACGGAGTCACCTAGTGCAG” here?
Its binding signal is 9260 fluorescence intensity (a.u.).

How did the binding signal turn out when “AGCTAATACTTAATTAATCACGCGCTAATAGACCGCTCCGCGGAGTCACCTAGTGCAG” was run?
Its binding signal is 23100 fluorescence intensity (a.u.).

With “AAATAATTAGTCGCACCAAACTTCCAATTTTAGTGTGGAACGGAGTCACCTAGTGCAG” as the sequence, how does the binding signal read?
The binding signal was 23000 fluorescence intensity (a.u.).

For “CGTGCCAATCAATTAATCGATCGATCAGTTTTGTGCGTACCGGAGTCACCTAGTGCAG”, which binding signal is on record?
Its binding signal is 51800 fluorescence intensity (a.u.).

How did the binding signal turn out when “GGCTGGGGTGGGCTCTACTTGACAGACTGATACTCCTACTCGGAGTCACCTAGTGCAG” was run?
The binding signal was 7510 fluorescence intensity (a.u.).

“CCTAATTAATCCATAGCACATGTTTACTGTAGCGTCACATCGGAGTCACCTAGTGCAG” was tested. Which binding signal did it give?
The binding signal was 12400 fluorescence intensity (a.u.).

For “AAATTAACCGGAGTGAAGATTGTTTGGCAGCTGAAACTGCCGGAGTCACCTAGTGCAG”, which binding signal is on record?
Its binding signal is 3900 fluorescence intensity (a.u.).

Which binding signal does the source give for “TTGACTGAGACAGGTACATAGTTTAAAGTTAGACCACATGCGGAGTCACCTAGTGCAG” here?
Its binding signal is 9000 fluorescence intensity (a.u.).

With “AGATCCCGTGATTAGAAATGGAACTCGCCTCTCGATCTCACGGAGTCACCTAGTGCAG” as the sequence, how does the binding signal read?
Its binding signal is 13300 fluorescence intensity (a.u.).

For “ATTGATTGAGAAAATAATGTTGGTGAATAAATTGTTATATCGGAGTCACCTAGTGCAG”, which binding signal is on record?
Its binding signal is 40700 fluorescence intensity (a.u.).

With “CTTGACTGTCTTCTCTCTCCCTGTTCATTCTAGATTCTGTCGGAGTCACCTAGTGCAG” as the sequence, how does the binding signal read?
Its binding signal is 25800 fluorescence intensity (a.u.).
